Reference: the supplement of paper PMC7125110
± gives the standard error. Variants at the floor of the assay are shown more often than the library holds them.

B1: glmS ribozyme (parent)
chain: AUAAAAGCGCCAGAACUACAGAAAUGUAGUUGACGAGGAGGAGGUUUAUCGAAUUUUCGGCGGAUGCCUCCAAA

How the values were obtained:
Conditions in all cases: with glucosamine-6-phosphate
glucosamine-6-phosphate [1] = variants of: B1; test: self-cleavage kobs at 40 uM GlcN6P; higher = faster cleavage; RNA array
Outline: (§1)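 Glucosamine-6-phosphate, from 40 μM to 10 mM in HEPES/KCl/Mg(OAc)2 buffer, was flowed over sequenced MiSeq chips carrying barcoded ribozyme variants transcribed in situ by E. coli RNA polymerase. A hybridised Cy3 probe tracked the variants at 37 °C as tiles were imaged over ~14 h. kobs, kcat and KM were obtained by fitting normalised per-tile medians to exponential decays and then applying weighted Michaelis–Menten fits across concentrations.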

glucosamine-6-phosphate [2] = variants of: B1; test: self-cleavage kobs at 10000 uM GlcN6P; higher = faster cleavage; RNA array
Outline: as §1

glucosamine-6-phosphate [3] = variants of: B1; test: self-cleavage kobs at 2500 uM GlcN6P; higher = faster cleavage; RNA array
Outline: as §1

glucosamine-6-phosphate [4] = variants of: B1; test: self-cleavage kobs at 640 uM GlcN6P; higher = faster cleavage; RNA array
Outline: as §1

glucosamine-6-phosphate [5] = variants of: B1; test: self-cleavage kobs at 160 uM GlcN6P; higher = faster cleavage; RNA array
Outline: as §1

## AUAAAAGCGCCAGAACUAAAGAAAUGUAUUUGACGUGGAGAAGGUUUAUCGAAUUUUCGGCGGAUGCCUCCAAA [C19A G29U A36U G41A]
glucosamine-6-phosphate [1]
  self-cleavage kobs at 40 uM GlcN6P: < 1e-05 s⁻¹
glucosamine-6-phosphate [2]
  self-cleavage kobs at 10000 uM GlcN6P: < 1e-05 s⁻¹

## AUAAAAGCGCCAGAACUAAAGAAAUGUAGUUGACGAGGAGGAGGUUUAUCGAAUUGUCGGCGGAUGCUUCCAAA [C19A U56G C68U]
glucosamine-6-phosphate [1]
  self-cleavage kobs at 40 uM GlcN6P: 0.000112 ± 3.6e-05 s⁻¹
glucosamine-6-phosphate [3]
  self-cleavage kobs at 2500 uM GlcN6P: 0.00041 ± 7.6e-05 s⁻¹
glucosamine-6-phosphate [2]
  self-cleavage kobs at 10000 uM GlcN6P: 0.000435 ± 9.2e-05 s⁻¹

## AUAAAAGCGCCAGAACUAUAGAAAUGUAGUUGACGAGGAGGAGGUUUAUCGAAUUUUCGGCGGAUGCCUCCAAA [C19U]
glucosamine-6-phosphate [1]
  self-cleavage kobs at 40 uM GlcN6P: 0.00125 ± 0.00046 s⁻¹
glucosamine-6-phosphate [4]
  self-cleavage kobs at 640 uM GlcN6P: 0.00527 ± 0.0011 s⁻¹
glucosamine-6-phosphate [5]
  self-cleavage kobs at 160 uM GlcN6P: 0.00445 ± 0.0011 s⁻¹
glucosamine-6-phosphate [3]
  self-cleavage kobs at 2500 uM GlcN6P: 0.0229 ± 0.0083 s⁻¹

## AUAAAAGCGCCAGAACUACAGAACUGUAGUUGACGAGGAGGAGGUUUCUCGAAUUUUCGGCUUAUGCCUGCAAA [A24C A48C G62U G63U C70G]
glucosamine-6-phosphate [1]
  self-cleavage kobs at 40 uM GlcN6P: < 1e-05 s⁻¹

## AUAAAAGCGCCAGAACUACAGAAAUUUAGUUGAAGAGGAGGAGGUUUAUCGAAUUUUCGGCGGAUGCCUCCAAA [G26U C34A]
glucosamine-6-phosphate [1]
  self-cleavage kobs at 40 uM GlcN6P: < 1e-05 s⁻¹
glucosamine-6-phosphate [3]
  self-cleavage kobs at 2500 uM GlcN6P: < 1e-05 s⁻¹

## AUAAAAGCGCCAGAACUACAGAAAUUUAGUUGACGAGGAGGAGGUUUAUCGAAUUUUCGGCGGAUGCCUUCAAA [G26U C70U]
glucosamine-6-phosphate [1]
  self-cleavage kobs at 40 uM GlcN6P: 0.000967 ± 0.00041 s⁻¹

## AUAAAAGCGCCAGAACUACAGAAAUUUAGUUGACGAGGAUGAGGUUUAUCGAAUUUUCGGCGGAUGCCUCCAAA [G26U G40U]
glucosamine-6-phosphate [1]
  self-cleavage kobs at 40 uM GlcN6P: 0.000119 ± 2.3e-05 s⁻¹

## AUAAAAGCGCCAGAACUACAGAAAUGGAGUUGCCGAGGAGGAGGUUUAUCCAAUUUUCGGCGGAUGCCUCCAAA [U27G A33C G51C]
glucosamine-6-phosphate [1]
  self-cleavage kobs at 40 uM GlcN6P: < 1e-05 s⁻¹

## AUAAAAGCGCCAGAACUACAGAAAUGUAAUUGGCGAGGACGCGGUUUAUCGAAUUUUCGGCGUAUGCAUCCAAA [G29A A33G G40C A42C G63U C68A]
glucosamine-6-phosphate [1]
  self-cleavage kobs at 40 uM GlcN6P: < 1e-05 s⁻¹
glucosamine-6-phosphate [5]
  self-cleavage kobs at 160 uM GlcN6P: < 1e-05 s⁻¹
glucosamine-6-phosphate [3]
  self-cleavage kobs at 2500 uM GlcN6P: < 1e-05 s⁻¹
glucosamine-6-phosphate [2]
  self-cleavage kobs at 10000 uM GlcN6P: < 1e-05 s⁻¹

## AUAAAAGCGCCAGAACUACAGAAAUGUAAUUGACGAGGAGGCGGUUUAUCGAAUUUUCGGCGGAUGCCUCCAAA [G29A A42C]
glucosamine-6-phosphate [1]
  self-cleavage kobs at 40 uM GlcN6P: < 1e-05 s⁻¹
glucosamine-6-phosphate [4]
  self-cleavage kobs at 640 uM GlcN6P: < 1e-05 s⁻¹
glucosamine-6-phosphate [5]
  self-cleavage kobs at 160 uM GlcN6P: < 1e-05 s⁻¹
glucosamine-6-phosphate [2]
  self-cleavage kobs at 10000 uM GlcN6P: < 1e-05 s⁻¹

## AUAAAAGCGCCAGAACUACAGAAAUGUAAUUGACGAGGAGGAGGUUUUUCGAAAUUUCGGCGGAUGCCUCCAAA [G29A A48U U54A]
glucosamine-6-phosphate [1]
  self-cleavage kobs at 40 uM GlcN6P: < 1e-05 s⁻¹
glucosamine-6-phosphate [2]
  self-cleavage kobs at 10000 uM GlcN6P: 3.57e-05 ± 1.5e-05 s⁻¹

## AUAAAAGCGCCAGAACUACAGAAAUGUAAUUGACGAGGAGGAGGUUUAUCGUAUUUUCGGCGGAUGCCUUCAAA [G29A A52U C70U]
glucosamine-6-phosphate [1]
  self-cleavage kobs at 40 uM GlcN6P: < 1e-05 s⁻¹

## AUAAAAGCGCCAGAACUACAGAAAUGUAAUUGAAGAGGAGGAAUUUCAUCGAAUUUUCAGCGUAUGCCUCCAAA [G29A C34A G43A G44U U47C G59A G63U]
glucosamine-6-phosphate [1]
  self-cleavage kobs at 40 uM GlcN6P: < 1e-05 s⁻¹
glucosamine-6-phosphate [2]
  self-cleavage kobs at 10000 uM GlcN6P: < 1e-05 s⁻¹

## AUAAAAGCGCCAGAACUACAGAAAUGUAAUUGAAGAGGAGGAGGUUUAUCGAAUUUUCAGCGAAUGCCUCCAAA [G29A C34A G59A G63A]
glucosamine-6-phosphate [1]
  self-cleavage kobs at 40 uM GlcN6P: < 1e-05 s⁻¹
glucosamine-6-phosphate [4]
  self-cleavage kobs at 640 uM GlcN6P: < 1e-05 s⁻¹
glucosamine-6-phosphate [5]
  self-cleavage kobs at 160 uM GlcN6P: < 1e-05 s⁻¹
glucosamine-6-phosphate [3]
  self-cleavage kobs at 2500 uM GlcN6P: < 1e-05 s⁻¹

## AUAAAAGCGCCAGAACUACAGAAAUGUAAUUGACGAGGAGGAGGUUUAUCGAAUUUUCGGUGGAUGCCUCCAAA [G29A C61U]
glucosamine-6-phosphate [1]
  self-cleavage kobs at 40 uM GlcN6P: < 1e-05 s⁻¹
glucosamine-6-phosphate [4]
  self-cleavage kobs at 640 uM GlcN6P: < 1e-05 s⁻¹
glucosamine-6-phosphate [5]
  self-cleavage kobs at 160 uM GlcN6P: < 1e-05 s⁻¹
glucosamine-6-phosphate [3]
  self-cleavage kobs at 2500 uM GlcN6P: < 1e-05 s⁻¹

## AUAAAAGCGCCAGAACUACAGAAAUGUAAUUGACCAAGAGGAGGUUUAUCGAAUUUUCGGCGGAUGCCUCCAAA [G29A G35C G37A]
glucosamine-6-phosphate [1]
  self-cleavage kobs at 40 uM GlcN6P: < 1e-05 s⁻¹
glucosamine-6-phosphate [2]
  self-cleavage kobs at 10000 uM GlcN6P: < 1e-05 s⁻¹
